Assay results published in PMC6775327, “Binding to medium and long chain fatty acyls is a common property of HEAT and ARM repeat modules” (Scientific Reports, 2019).

Columns and labels:
Experiment in all cases: pull-down; biotinylated peptides saturating streptavidin beads (10 uL); 1 ug GST-tagged recombinant protein; detected by western blotting with an antibody against the GST tag
Details in all cases: both partners purified
[1] = target: T1, GST-tagged GCN1 7-HEAT repeats (Translational activator GCN1), 1402–1715 aa (UniProt Q92616 1402-1715)
T1 construct: Expressed from pGEX-6p-1 as N-terminal GST fusion; detected by an antibody against the GST tag; source: E. coli BL21, purified (glutathione sepharose); not shown: GST, N-terminal, kept
T1 sequence (Q92616 1402-1715): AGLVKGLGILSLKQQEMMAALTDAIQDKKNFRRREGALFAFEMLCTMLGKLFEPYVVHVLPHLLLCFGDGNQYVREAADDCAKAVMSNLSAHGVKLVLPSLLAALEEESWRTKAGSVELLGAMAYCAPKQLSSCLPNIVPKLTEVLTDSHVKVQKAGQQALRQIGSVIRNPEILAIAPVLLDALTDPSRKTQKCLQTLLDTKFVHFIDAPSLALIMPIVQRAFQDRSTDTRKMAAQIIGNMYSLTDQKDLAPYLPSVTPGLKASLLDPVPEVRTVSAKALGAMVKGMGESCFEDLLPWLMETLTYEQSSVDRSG

[2] = target: T2, GST-tagged DNAPK single HEAT repeat (DNA-dependent protein kinase catalytic subunit), 276–331 aa (UniProt P78527 276-331)
T2 construct: DNA-dependent protein kinase catalytic subunit, single HEAT repeat, residues 276-331; Expressed from pGEX-6p-1 as N-terminal GST fusion; detected by an antibody against the GST tag; source: E. coli BL21, purified (glutathione sepharose); not shown: GST, N-terminal, kept
T2 sequence (P78527 276-331): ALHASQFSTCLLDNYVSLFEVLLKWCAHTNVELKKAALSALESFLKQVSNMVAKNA

[3] = target: T3, GST-tagged 2AAB full length (Serine/threonine-protein phosphatase 2 A 65 kDa regulatory subunit A beta … (UniProt P30154 1-601))
T3 construct: Serine/threonine-protein phosphatase 2A 65 kDa regulatory subunit A beta isoform, full length, 1-601 aa; Expressed from pGEX-6p-1 as N-terminal GST fusion; detected by an antibody against the GST tag; source: E. coli BL21, purified (glutathione sepharose); not shown: GST, N-terminal, kept
T3 sequence (P30154 whole entry, the tested form may be a part, canonical isoform): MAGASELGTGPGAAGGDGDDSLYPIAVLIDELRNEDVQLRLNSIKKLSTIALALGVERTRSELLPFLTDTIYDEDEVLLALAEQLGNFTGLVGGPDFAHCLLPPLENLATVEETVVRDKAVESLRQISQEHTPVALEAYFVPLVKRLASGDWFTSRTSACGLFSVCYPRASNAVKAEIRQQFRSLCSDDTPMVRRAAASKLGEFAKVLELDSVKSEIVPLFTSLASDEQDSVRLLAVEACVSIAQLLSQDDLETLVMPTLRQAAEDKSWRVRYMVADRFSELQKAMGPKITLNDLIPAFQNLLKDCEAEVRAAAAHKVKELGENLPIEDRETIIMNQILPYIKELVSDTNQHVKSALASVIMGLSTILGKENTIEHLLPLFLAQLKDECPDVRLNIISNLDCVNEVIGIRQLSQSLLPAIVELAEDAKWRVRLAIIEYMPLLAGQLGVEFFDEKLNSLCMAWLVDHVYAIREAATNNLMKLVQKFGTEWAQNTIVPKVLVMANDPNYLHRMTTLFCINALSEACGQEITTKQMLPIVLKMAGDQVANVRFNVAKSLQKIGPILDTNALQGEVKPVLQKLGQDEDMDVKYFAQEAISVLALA

[4] = target: T4, GST-tagged β-catenin 12-ARM repeats, 135–664 aa (UniProt P35222 135-664)
T4 construct: β-catenin, 12-ARM repeats, residues 135-664; Expressed from pGEX-6p-1 as N-terminal GST fusion; detected by an antibody against the GST tag; also called β-catenin ARM repeats; source: E. coli BL21, purified (glutathione sepharose); not shown: GST, N-terminal, kept
T4 sequence (looked up): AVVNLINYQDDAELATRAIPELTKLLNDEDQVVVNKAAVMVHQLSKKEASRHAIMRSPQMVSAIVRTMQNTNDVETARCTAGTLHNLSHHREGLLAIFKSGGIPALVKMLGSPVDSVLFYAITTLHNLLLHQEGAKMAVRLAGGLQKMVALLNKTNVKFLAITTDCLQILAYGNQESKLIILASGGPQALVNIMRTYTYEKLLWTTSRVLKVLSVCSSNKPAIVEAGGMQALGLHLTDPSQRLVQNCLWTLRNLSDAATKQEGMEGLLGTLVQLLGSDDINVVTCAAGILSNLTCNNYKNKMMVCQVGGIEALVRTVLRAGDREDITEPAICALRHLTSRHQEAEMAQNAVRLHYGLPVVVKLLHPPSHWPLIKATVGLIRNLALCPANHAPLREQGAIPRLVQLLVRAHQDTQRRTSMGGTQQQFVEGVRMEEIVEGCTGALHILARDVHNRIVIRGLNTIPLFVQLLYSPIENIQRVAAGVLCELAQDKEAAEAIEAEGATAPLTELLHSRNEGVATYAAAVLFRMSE

[5] = target: T5, GST-tagged IMB1 single HEAT repeat (Importin subunit beta-1), 396–459 aa (UniProt Q14974 396-459)
T5 construct: Importin subunit beta-1, single HEAT repeat, residues 396-459; Expressed from pGEX-6p-1 as N-terminal GST fusion; detected by an antibody against the GST tag; source: E. coli BL21, purified (glutathione sepharose); not shown: GST, N-terminal, kept
T5 sequence (Q14974 396-459): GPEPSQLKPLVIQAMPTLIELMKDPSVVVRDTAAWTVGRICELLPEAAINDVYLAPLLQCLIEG

Measured: binding result

B1: H3 1–20 peptide myristoylated on lysine 9, …(myr)…-K(Biotin) (peptide)
peptide: not shown
modifications: myristoyl-lysine at 9; biotin on the added C-terminal lysine
notes: histone H3, residues 1-20; added C-terminal lysine that carries the biotin, K(Biotin); Peptides with K(Biotin) were synthesized on ChemMatrix Rink amide resin, so the C-terminus is probably an amide (surmised); also called H3K9myr; source: synthetic peptide; not shown: biotin (on an added C-terminal lysine), C-terminal, kept
binds: all assays above
